# PubChem BioAssay AID330 (DTP/NCI, 2004)
# Several values for one entry are separate records, joined by “and”; a condition that tells them apart may be missing. Equal values may be shown once. Further values from the same series stand in other lists. Inconclusive results and toxic doses are left out.
# System: P388 leukemia ip, CD2F1 mice, survival T/C
# Test: NCI In Vivo Anticancer Drug Screen. Data for tumor model P388 Leukemia (intraperitoneal) in CD2F1 (CDF1) mice
# Conditions: endpoint: median survival time, higher = longer survival
# Protocol: The antitumor activity of compounds was measured in mice bearing transplantable tumors. Survival or tumor size were measured and the results are expressed as the measurement made in the treated group (T) divided by the measurement made in the vehicle treated control group (C). The tumor model used in this assay is P388 Leukemia (intraperitoneal) in CD2F1 (CDF1) mice
structure (smiles),measurement,setting,value
CO[C@H]1C[C@](C)(O)Cc2cc3c(c(O)c21)C(=O)c1c(O)cc2c(c1C3=O)O[C@@H]1O[C@@]2(C)[C@H](O)[C@@H](N(C)C)[C@@H]1O,T/C,"dose: 12.5 mg/kg/injection, schedule: Q01DX001 (sc), vehicle: other",97 % of control
same,T/C,"dose: 22.5 mg/kg/injection, schedule: Q01DX005 (iv), vehicle: clinical formulation",98 % of control
same,T/C,"dose: 40.0 mg/kg/injection, schedule: Q01DX005 (ip), vehicle: distilled water + Tween-80",96 % of control
O=C1OC(C(O)CO)C(O)=C1O (configuration not stated),T/C,"dose: 0.05 mg/kg/injection, schedule: Q01DX009 (sc), vehicle: saline",95 % of control
O=C1NC2(CCCCC2)C(=O)N1CCN(CCCl)CCCl,T/C,"dose: 2.5 mg/kg/injection, schedule: Q01DX001 (oral), vehicle: other",97 % of control
same,T/C,"dose: 3.0 mg/kg/injection, schedule: Q01DX009 (ip), vehicle: Klucel (hydroxypropylcellulose) (HPC)",188 % of control
same,T/C,"dose: 3.12 mg/kg/injection, schedule: Q01DX009 (ip), vehicle: saline",164 % of control and 172 % of control
same,T/C,"dose: 3.24 mg/kg/injection, schedule: Q01DX009 (ip), vehicle: Klucel (hydroxypropylcellulose) (HPC)",198 % of control
same,T/C,"dose: 4.0 mg/kg/injection, schedule: Q01DX009 (ip), vehicle: saline",206 % of control
same,T/C,"dose: 5.0 mg/kg/injection, schedule: Q01DX009 (ip), vehicle: clinical formulation",211 % of control and 87 % of control
same,T/C,"dose: 5.0 mg/kg/injection, schedule: Q01DX009 (ip), vehicle: saline with Tween-80",182 % of control
same,T/C,"dose: 5.0 mg/kg/injection, schedule: Q01DX009 (ip), vehicle: saline",185 % of control
same,T/C,"dose: 5.4 mg/kg/injection, schedule: Q01DX009 (ip), vehicle: Klucel (hydroxypropylcellulose) (HPC)",230 % of control
same,T/C,"dose: 6.0 mg/kg/injection, schedule: Q01DX009 (ip), vehicle: saline with Tween-80",203 % of control
same,T/C,"dose: 6.0 mg/kg/injection, schedule: Q01DX009 (oral), vehicle: other",96 % of control
same,T/C,"dose: 6.25 mg/kg/injection, schedule: Q01DX009 (ip), vehicle: saline",205 % of control and 91 % of control
same,T/C,"dose: 9.0 mg/kg/injection, schedule: Q01DX009 (ip), vehicle: saline",246 % of control
same,T/C,"dose: 10.0 mg/kg/injection, schedule: Q01DX005 (iv), vehicle: clinical formulation",191 % of control
same,T/C,"dose: 10.0 mg/kg/injection, schedule: Q01DX009 (ip), vehicle: clinical formulation",259 % of control and 87 % of control
same,T/C,"dose: 10.0 mg/kg/injection, schedule: Q01DX009 (ip), vehicle: other",185 % of control
same,T/C,"dose: 10.0 mg/kg/injection, schedule: Q01DX009 (ip), vehicle: saline with Tween-80",88 % of control
same,T/C,"dose: 10.0 mg/kg/injection, schedule: Q01DX009 (ip), vehicle: saline",220 % of control
same,T/C,"dose: 12.0 mg/kg/injection, schedule: Q01DX005 (ip), vehicle: suspension in saline",200 % of control
same,T/C,"dose: 12.0 mg/kg/injection, schedule: Q01DX009 (ip), vehicle: Klucel (hydroxypropylcellulose) (HPC)",91 % of control
same,T/C,"dose: 12.0 mg/kg/injection, schedule: Q01DX009 (ip), vehicle: saline with Tween-80",240 % of control
same,T/C,"dose: 13.0 mg/kg/injection, schedule: Q01DX009 (ip), vehicle: saline",269 % of control
same,T/C,"dose: 20.0 mg/kg/injection, schedule: Q01DX005 (ip), vehicle: other",199 % of control
same,T/C,"dose: 20.0 mg/kg/injection, schedule: Q01DX009 (ip), vehicle: Klucel (hydroxypropylcellulose) (HPC)",94 % of control
same,T/C,"dose: 20.0 mg/kg/injection, schedule: Q01DX009 (ip), vehicle: saline",226 % of control
same,T/C,"dose: 24.0 mg/kg/injection, schedule: Q01DX005 (ip), vehicle: saline",196 % of control
same,T/C,"dose: 24.0 mg/kg/injection, schedule: Q01DX005 (ip), vehicle: suspension in saline",234 % of control
same,T/C,"dose: 24.0 mg/kg/injection, schedule: Q01DX009 (ip), vehicle: other",193 % of control
same,T/C,"dose: 32.0 mg/kg/injection, schedule: Q01DX001 (oral), vehicle: saline",94 % of control
same,T/C,"dose: 32.0 mg/kg/injection, schedule: Q01DX001 (oral), vehicle: suspension in saline",95 % of control
same,T/C,"dose: 50.0 mg/kg/injection, schedule: Q01DX001 (ip), vehicle: Klucel (hydroxypropylcellulose) (HPC)",214 % of control
same,T/C,"dose: 64.0 mg/kg/injection, schedule: Q01DX001 (ip), vehicle: suspension in saline",200 % of control
same,T/C,"dose: 100.0 mg/kg/injection, schedule: Q01DX009 (oral), vehicle: Klucel (hydroxypropylcellulose) (HPC)",94 % of control
